Reference: publication PMC4199508
Residue numbers refer to the chain shown, from its start. No constants are given. Whether binding was seen depends on the method and setting. In cells and extracts the contact can be indirect. Some entries that bind do so weakly or less than the wild type. Tags and fused reporters may be left off the sequences shown.

Experiments:
Assay in all cases: co-IP; fission yeast cell extracts; lysis and wash buffer 50 mM Tris pH 8.0, 150 mM NaCl, 10% glycerol, 5 mM EDTA, 0.5% NP40; IP with anti-myc or anti-FLAG and Dynabeads Protein G, western blot; Tpz1-Pot1 also in ccq1Δ poz1Δ cells (anti-myc IP of Tpz1-myc)
[1] = biological target: T1, Tpz1-L449R (myc-tagged, expressed in fission yeast) (Schizosaccharomyces pombe) (UniProt O14246)
T1 sequence: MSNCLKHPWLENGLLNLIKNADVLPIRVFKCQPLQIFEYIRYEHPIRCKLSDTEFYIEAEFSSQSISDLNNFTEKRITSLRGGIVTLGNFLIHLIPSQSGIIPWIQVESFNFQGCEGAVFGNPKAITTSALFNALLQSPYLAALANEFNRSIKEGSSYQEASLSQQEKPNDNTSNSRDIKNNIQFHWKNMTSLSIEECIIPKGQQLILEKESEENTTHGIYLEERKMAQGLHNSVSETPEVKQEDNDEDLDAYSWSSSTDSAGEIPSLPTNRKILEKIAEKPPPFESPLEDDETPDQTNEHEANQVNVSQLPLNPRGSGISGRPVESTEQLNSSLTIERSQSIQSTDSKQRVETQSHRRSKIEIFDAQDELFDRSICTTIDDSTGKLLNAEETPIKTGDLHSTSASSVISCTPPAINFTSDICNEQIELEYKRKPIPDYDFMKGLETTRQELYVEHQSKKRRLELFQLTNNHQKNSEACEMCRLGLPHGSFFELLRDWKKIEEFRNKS

[2] = biological target: T2, Tpz1-Y439R,L445R (myc-tagged, expressed in fission yeast) (Schizosaccharomyces pombe) (UniProt O14246)
T2 sequence: T1 sequence with Y439R, L445R, R449L

[3] = biological target: T3, Tpz1-[1–485] (C-terminally truncated Tpz1, myc-tagged, expressed in fission yeast) (Schizosaccharomyces pombe) (UniProt O14246)
T3 sequence: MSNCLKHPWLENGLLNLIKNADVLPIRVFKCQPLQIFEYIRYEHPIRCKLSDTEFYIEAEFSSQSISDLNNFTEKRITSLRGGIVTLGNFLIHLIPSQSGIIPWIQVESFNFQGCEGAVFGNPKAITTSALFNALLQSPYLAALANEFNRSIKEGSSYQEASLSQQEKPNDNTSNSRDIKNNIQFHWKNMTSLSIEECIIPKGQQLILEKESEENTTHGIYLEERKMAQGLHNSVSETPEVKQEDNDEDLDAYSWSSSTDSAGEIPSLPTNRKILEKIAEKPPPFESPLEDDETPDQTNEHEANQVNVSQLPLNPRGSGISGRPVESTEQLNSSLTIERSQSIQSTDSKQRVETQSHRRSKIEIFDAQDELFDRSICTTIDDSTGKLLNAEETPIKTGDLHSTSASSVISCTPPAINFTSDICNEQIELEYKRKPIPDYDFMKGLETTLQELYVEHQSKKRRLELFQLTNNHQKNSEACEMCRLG

[4] = biological target: T4, Tpz1-myc (full length Tpz1, Tpz1-FL, expressed in fission yeast) (Schizosaccharomyces pombe) (UniProt O14246)
T4 sequence: T1 sequence with R449L

[5] = biological target: T5, Tpz1-Y439R,L445R,L449R (myc-tagged, expressed in fission yeast) (Schizosaccharomyces pombe) (UniProt O14246)
T5 sequence: T1 sequence with Y439R, L445R

binding [1]: binds
binding [2]: binds
binding [3]: no binding
binding [4]: binds
binding [5]: binds
B1: Poz1-FLAG (expressed in fission yeast) (protein, UniProt O13852 1-249)
chain: MNEKIRSQSVLNTLETFFIKENHYDMQREESSIVNACLRYLGYSKSMCHEKMPIFMDIAFIEYCFNLSLDPSSFQNLPITQTQPDSQQILWEYSLISNALERLENIELERQNCMREDGLVKYTNELLLNKETLNNEALKLYSCAKAGICRWMAFHFLEQEPIDHINFTKFLQDWGSHNEKEMEALQRLSKHKIRKRLIYVSQHKKKMPWSKFNSVLSRYIQCTKLQLEVFCDYDFKQREIVKMLTSNIN
